Assay results taken from the supplement of paper PMC11876631.
Where a chain is given by its changes, count along the chain named. In names and notes the source's numbering stands. ± gives the standard deviation of the averaged measurements. Laboratory Escherichia coli strains with one amino-acid change in an essential protein, pooled on minimal glucose agar with carbenicillin or gentamicin at twice the control MIC (plus kanamycin and chloramphenicol for the plasmids), 48 h. Fold change of barcode share against drug-free plates; higher = less susceptible. Active = above 20 in both replicates (the paper's putatively resistant). '<' = one read or none on drug, '>' = one read or none on a drug-free plate. Shares are relative, so most strains fall below 1 when a few take over. Listed are strains with at least 15 reads on both drug-free plates, and hits; most hits rest on fewer reference reads. Replicate rank correlation about 0.5. Edits are read from barcodes.

B1: argG L114Q (protein)
chain: MTTILKHLPVGQRIGIAFSGGLDTSAALLWMRQKGAVPYAYTANLGQPDEEDYDAIPRRAMEYGAENARLIDCRKQLVAEGIAAIQCGAFHNTTGGLTYFNTTPLGRAVTGTMQVAAMKEDGVNIWGDGSTYKGNDIERFYRYGLLTNAELQIYKPWLDTDFIDELGGRHEMSEFMIACGFDYKMSVEKAYSTDSNMLGATHEAKDLEYLNSSVKIVNPIMGVKFWDESVKIPAEEVTVRFEQGHPVALNGKTFSDDVEMMLEANRIGGRHGLGMSDQIENRIIEAKSRGIYEAPGMALLHIAYERLLTGIHNEDTIEQYHAHGRQLGRLLYQGRWFDSQALMLRDSLQRWVASQITGEVTLELRRGNDYSILNTVSENLTYKPERLTMEKGDSVFSPDDRIGQLTMRNLDITDTREKLFGYAKTGLLSSSAASGVPQVENLENKGQ
B2: argG M261A (protein)
chain: B1 chain with Q114L, M261A
B3: argG V115A (protein)
chain: B1 chain with Q114L, V115A
B4: argG V115P (protein)
chain: B1 chain with Q114L, V115P
B5: argG V115Q (protein)
chain: B1 chain with Q114L, V115Q
B6: hemA V188A (protein)
chain: MTLLALGINHKTAPVSLRERVSFSPDKLDQALDSLLAQPMVQGGVVLSTCNRTELYLSVEEQDNLQEALIRWLCDYHNLNEEDLRKSLYWHQDNDAVSHLMRVASGLDSLVLGEPQILGQVKKAFADSQKGHMKASELERMFQKSFSVAKRVRTETDIGASAVSVAFAACTLARQIFESLSTVTVLLAGAGETIELVARHLREHKVQKMIIANRTRERAQILADEVGAEVIALSDIDERLREADIIISSTASPLPIIGKGMVERALKSRRNQPMLLVDIAVPRDVEPEVGKLANAYLYSVDDLQSIISHNLAQRKAAAVEAETIVAQETSEFMAWLRAQSASETIREYRSQAEQVRDELTAKALAALEQGGDAQAIMQDLAWKLTNRLIHAPTKSLQQAARDGDNERLNILRDSLGLE
B7: hemA V188P (protein)
chain: B6 chain with A188P
B8: hemA V188Q (protein)
chain: B6 chain with A188Q
B9: hemA L187A (protein)
chain: B6 chain with L187A, A188V
B10: hemA V188D (protein)
chain: B6 chain with A188D
B11: hemA V188W (protein)
chain: B6 chain with A188W

What follows are proteins tested against Escherichia coli (laboratory strain) (assay: barcode share on antibiotic plates over drug-free plates; higher = less susceptible). Conditions: antibiotic: carbenicillin; 2× MIC (3.1 µg/mL).
Experimental: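 A pool of E. coli strains, each edited to carry one amino-acid change in an essential protein, was grown for 48 h on minimal glucose agar with or without antibiotic; strain barcodes were sequenced; mean of two replicates.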
In the case of B1, the “fold change of barcode share” value is reported as 0.3577 ± 0.00088. For B2, the “fold change of barcode share” value was 0.143 ± 0.022. In the case of B3, the “fold change of barcode share” value is reported as 0.362 ± 0.16. In the case of B4, the “fold change of barcode share” value is reported as 0.42 ± 0.054. With B5 the “fold change of barcode share” value was 1.03 ± 0.11. For B6, the “fold change of barcode share” value was 0.419 ± 0.098. For B7, the “fold change of barcode share” value was 0.386 ± 0.07. With B8 the “fold change of barcode share” value was 0.537 ± 0.14. B9 was tested, and the “fold change of barcode share” value was 0.287 ± 0.02. In the case of B10, the “fold change of barcode share” value is reported as 0.649 ± 0.17. For B11, the “fold change of barcode share” value was 0.456 ± 0.13.

Same assay, conditions: antibiotic: gentamicin; 2× MIC (MIC 0.45 µg/mL)
With B1 the “fold change of barcode share” value was 0.238 ± 0.3. In the case of B2, the “fold change of barcode share” value is reported as under 0.0105. For B3, the “fold change of barcode share” value was 0.0084 ± 0.0038. B4 was tested, and the “fold change of barcode share” value was 0.00477 ± 0.0024. B6 was tested, and the “fold change of barcode share” value was 0.00752 ± 0.0056. B7 was tested, and the “fold change of barcode share” value was 0.0519 ± 0.017. B8 was tested, and the “fold change of barcode share” value was 0.00479 ± 0.00073. With B9 the “fold change of barcode share” value was under 0.00732. B10 was tested, and the “fold change of barcode share” value was 159 ± 210. B11 was tested, and the “fold change of barcode share” value was 3.26 ± 0.2.
